Reference: patent publication US20190002581A1 (SUTRO BIOPHARMA, published 2019)
Values belong to the binder of their own block, whether it stands above or below them.

Columns and labels:
[1] = target: T1, human EpCAM expressed on cells (stably transfected CHO cells, HCT-116, JIMT1) (human, UniProt P16422 24-314); assay: flow cytometry, JIMT1 cells
T1 construct: also called Human EpCAM (CHO); Human EpCAM (HCT-116)
T1 sequence: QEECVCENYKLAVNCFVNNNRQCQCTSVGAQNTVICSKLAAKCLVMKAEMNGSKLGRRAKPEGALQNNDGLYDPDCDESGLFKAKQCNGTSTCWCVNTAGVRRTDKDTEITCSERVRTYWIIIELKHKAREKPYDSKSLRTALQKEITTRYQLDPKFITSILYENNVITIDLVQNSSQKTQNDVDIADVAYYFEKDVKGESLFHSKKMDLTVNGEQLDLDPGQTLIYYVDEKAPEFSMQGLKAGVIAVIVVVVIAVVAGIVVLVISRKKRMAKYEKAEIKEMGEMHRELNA
Experimental: (§1) CHO-k cells were transfected to stably express EpCAM on the cell surface. CHO parental and stably transfected CHO-EpCAM (human, cynomolgus and mouse EpCAM-expressing cells) cells were washed with DPBS, detached with Accutase™ (BD Biosciences; San Jose, Calif.), and resuspended in ice-cold FACS buffer (DPBS buffer supplemented with 0.5% bovine serum albumin).
(§2) A total of 200,000 cells per 96-well were incubated on ice for 60 mins with 100 nM of test antibodies diluted in FACS buffer. Cells were washed twice with FACS buffer and incubated on ice for 30 mins with R-phycoerythrin AffiniPure F(ab′)₂ fragment, goat anti-Human IgG, Fcγ fragment specific secondary detection antibody (Jackson ImmunoResearch Laboratories, West Grove, Pa.) diluted at 1:200 with FACS buffer. Cells were washed twice with FACS buffer, fixed in 4% paraformaldehyde in PBS (Santa Cruz Biotechnology; Dallas, Tex.) for 20 mins on ice in the dark, washed twice with FACS buffer and analyzed using the BD LSR II Flow Cytometer (BD Biosciences; San Jose, Calif.). Data were analyzed using FlowJo (FlowJo, LLC; Ashland, Oreg.) to determine mean fluorescence intensities. Binding constants were calculated using the statistical software, GraphPad Prism (GraphPad Software; La Jolla, Calif.) using the nonlinear regression equation, one site-specific binding with Hill slope. Secondary antibody alone was used as a control, in addition to measuring non-specific EpCAM antibody binding to CHO parental cells. For some variants, binding to human tumor cells, HCT 116 and JIMT1 cells were also evaluated.

[2] = target: T1, human EpCAM expressed on cells (stably …); assay: flow cytometry, HCT-116 cells
Experimental: as §1, §2

[3] = target: T1, human EpCAM expressed on cells (stably …); assay: flow cytometry, CHO cells expressing human EpCAM
[4] = target: T2, cynomolgus EpCAM protein adsorbed on the plate (ELISA) (cynomolgus monkey, UniProt Q1WER1 26-265 (rhesus entry), limits assumed); assay: ELISA, cyno EpCAM adsorbed on plate, anti-human Fc-HRP
T2 construct: Construct used for the cyno ELISA is not described; also called Cyno EpCAM (ELISA); cEpCAM
T2 sequence: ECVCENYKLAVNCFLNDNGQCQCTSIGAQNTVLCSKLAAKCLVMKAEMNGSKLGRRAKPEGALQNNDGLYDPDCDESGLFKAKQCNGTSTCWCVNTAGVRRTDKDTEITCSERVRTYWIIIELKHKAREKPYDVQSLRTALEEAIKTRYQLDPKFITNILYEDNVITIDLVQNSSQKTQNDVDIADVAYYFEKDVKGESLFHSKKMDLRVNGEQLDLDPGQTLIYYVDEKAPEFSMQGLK
Source text: (§3) The “EC₅₀” value is the concentration of the antibody at which half-maximum signal is achieved in an ELISA assay where EpCAM protein is adsorbed onto a plate and then bound by the respective antibody provided herein. The anti-EpCAM antibody is detected with horseradish peroxidase (HRP)-conjugated anti-human Fc antibody.

[5] = target: T3, human EpCAM protein adsorbed on the plate (ELISA) (human, UniProt P16422 24-265); assay: ELISA, human EpCAM adsorbed on plate, anti-human Fc-HRP
T3 construct: also called Human EpCAM (ELISA); recombinant human EpCAM extracellular domain (ECD)
T3 sequence: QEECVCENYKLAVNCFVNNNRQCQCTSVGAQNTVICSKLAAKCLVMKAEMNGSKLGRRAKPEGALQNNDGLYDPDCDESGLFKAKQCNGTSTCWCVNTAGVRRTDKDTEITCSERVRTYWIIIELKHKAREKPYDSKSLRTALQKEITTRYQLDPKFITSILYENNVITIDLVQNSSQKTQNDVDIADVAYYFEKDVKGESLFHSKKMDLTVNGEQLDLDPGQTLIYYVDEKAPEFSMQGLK
Source text: as §3

[6] = target: T4, human EpCAM-His (analyte of the Biacore experiments) (human, UniProt P16422 24-265); assay: SPR (Biacore), scFv-Fc captured on anti-FLAG, human EpCAM-His as analyte, 25 C
T4 construct: also called Human EpCAM (Biacore); hEpCAM
T4 sequence: T3 sequence
How it was run: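 Anti-FLAG-captured scFv-Fc antibodies probed by Biacore at 25 °C in HBS-EP+; EpCAM-His flowed at 50, 25, 12.5, 6.25 and 0 nM (180 s association, 600 s dissociation, 50 μl/min), glycine pH 2.0 regeneration. KD from ratio of rate constants via 1:1 Langmuir fit.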

- Kd [1]: 7.6 nM
- Kd [2]: 6.9 nM
- Kd [3]: 2 nM
- EC50 [4]: 16.2 nM
- EC50 [5]: 0.39 nM
- Kd [6]: 3.93 nM
- koff [6]: 0.000256 s⁻¹
- kon [6]: 65200 M⁻¹ s⁻¹
B1: SRP1464-B04 scFv-Fc antibody (Fc fusion)
chain: MEVQLLESGGGLVQPGGSLRLSCAASGFTFSGSSMSWVRQAPGKGLEWVGAIDGGEGYTSYADSVKGRFTISRDNSKNTLYLQMNSLRAEDTAVYYCAKGWHPQTLYDLDYWGQGTLVTVSSGGGGSGGGGSGGGGSEIVLTQSPGTLSLSPGERATLSCRASQSVSSSYLAWYQQKPGQAPRLLIYGASSRATGIPDRFSGSGSGTDFTLTISRLEPEDFAVYYCQQLVTSPPTFGQGTKVEIKAAGSDQ[letters of human IgG1 Fc with changes omitted]GSGDYKDDDDKGSGHHHHHH
notes: scFv-Fc format; the entry holds scFv, IgG1 Fc, FLAG and His tags

- Kd [1]: 5.2 nM
- Kd [2]: 6.7 nM
- Kd [3]: 2.6 nM
- EC50 [5]: 0.009 nM
- Kd [6]: 0.983 nM
- koff [6]: 0.000197 s⁻¹
- kon [6]: 200000 M⁻¹ s⁻¹
B2: SRP1464-A02 scFv-Fc antibody (Fc fusion)
chain: MEVQLLESGGGLVQPGGSLRLSCAASGFTFGVESMSWVRQAPGKGLEWVGAIDGGDGYTGYADSVKDRFTISRDNSKNTLYLQMNSLRAEDTAVYYCAKAWHPQTYYGVDYWGQGTLVTVSSGGGGSGGGGSGGGGSEIVLTQSPGTLSLSPGERATLSCRASQSVSSSYLAWYQQKPGQAPRLLIYGASSRATGIPDRFSGSGSGTDFTLTISRLEPEDFAVYYCQQTSEAPPTFGQGTKVEIKAAGSDQ[letters of human IgG1 Fc with changes omitted]GSGDYKDDDDKGSGHHHHHH
notes: as for B1

- Kd [1]: 2.7 nM
- Kd [2]: 3.6 nM
- Kd [3]: 1.2 nM
- EC50 [5]: 0.39 nM
- Kd [6]: 0.193 nM
- koff [6]: 1.74e-05 s⁻¹
- kon [6]: 90300 M⁻¹ s⁻¹
B3: SRP1464-A08 scFv-Fc antibody (Fc fusion)
chain: MEVQLLESGGGLVQPGGSLRLSCAASGFTFSGSSMSWVRQAPGKGLEWVGAIAGGDGYTGYADSVKGRFTISRDNSKNTLYLQMNSLRAEDTAVYYCAKGWHRQDYYGQDYWGQGTLVTVSSGGGGSGGGGSGGGGSEIVLTQSPGTLSLSPGERATLGCRASQSVSSSYLAWYQQKPGQAPRLLIYGASSRATGIPDRFSGSGSGTDFTLTISRLEPEDFAVYYCQQNQAAPATFGQGTKVEIKAAGSDQ[letters of human IgG1 Fc with changes omitted]GSGDYKDDDDKGSGHHHHHH
notes: as for B1
